# According to the supplement of paper PMC4166925:
# ± gives the standard deviation of the averaged measurements. In all, about 33,000 sequences were measured (“E-score (dimensionless, -0.5 to 0.5)”: median about -0.049, highest 2% from about 0.37 on). Some of the results follow.
# Test system: T1, PmTbr T-box DNA-binding domain (GST fusion)
# T1 sequence: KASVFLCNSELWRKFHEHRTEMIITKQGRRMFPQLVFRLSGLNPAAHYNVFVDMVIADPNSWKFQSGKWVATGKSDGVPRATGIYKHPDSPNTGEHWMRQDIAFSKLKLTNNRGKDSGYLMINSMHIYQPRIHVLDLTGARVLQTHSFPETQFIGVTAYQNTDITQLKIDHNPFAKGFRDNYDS
# Experiment: PBM E-score of 8-mer (E-score (dimensionless, -0.5 to 0.5)); Tbr is Tbrain of the sea star Patiria miniata (Pm) or the sea urchin Strongylocentrotus purpuratus (Sp); higher = stronger binding preference; most listed sequences are background and not binding sites
# Conditions: the construct has about 5 more residues each side
# Experimental: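 Universal protein-binding microarray (Agilent AMADID 016060, 60-bp probes with a 35-bp variable region) incubated with 200 nM GST-fused Patiria miniata Tbr T-box DNA-binding domain (residues 272-466) in PBS pH 7.5. Scored for every ungapped 8-mer (given with its reverse complement) by the Universal PBM Analysis Suite as E-score (modified Wilcoxon-Mann-Whitney enrichment, range -0.5 to 0.5; >0.45 counts as bound) and Z-score of median probe intensity. Two replicate arrays (datasets 1 and 2).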
# 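Note: 200 nM protein in PBS on universal arrays averaged over duplicate arrays.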
row,Sequence,PBM E-score of 8-mer
1,GTCTCTAA,-0.0362 ± 0.057
2,ACTACATA,-0.185 ± 0.019
3,CTGATGCC,-0.21 ± 0.043
4,CTTTCTCC,-0.0631 ± 0.16
5,CTAATCAC,0.133 ± 0.0072
6,AAGGACTG,-0.124 ± 0.051
7,GCCCTAAC,-0.0192 ± 0.029
8,GTTCCCGA,-0.175 ± 0.079
9,CTCATGGC,-0.0877 ± 0.057
10,TAGCTATA,-0.175 ± 0.012
11,ACGTGCGA,0.4433 ± 0.0027
12,CTCACCAA,0.211 ± 0.042
13,ATGGAATC,-0.113 ± 0.077
14,CAGCACCC,0.257 ± 0.063
15,GCTGGCAC,0.234 ± 0.064
16,ATCAAGAG,-0.279 ± 0.034
17,ATTTGTCC,-0.02 ± 0.047
18,ATTGGACC,-0.11 ± 0.012
19,ATGAATGG,-0.0554 ± 0.0063
20,AGGCTCAA,-0.107 ± 0.019
21,CGCAATTC,0.096 ± 0.018
22,ACGCGTAA,0.205 ± 0.0049
23,CAAAGCGC,-0.0479 ± 0.039
24,ACCCGGAT,-0.000825 ± 0.1
25,ACACGGCG,0.16 ± 0.0048

row,Sequence,PBM E-score of 8-mer
1,CGGACCAG,-0.355 ± 0.0047
2,ACCACAGG,0.132 ± 0.015
3,ATCCCGCC,-0.124 ± 0.045
4,ATCTCACG,0.294 ± 0.016
5,ATCCTTAG,-0.27 ± 0.0086
6,GGCTATAA,-0.0886 ± 0.0021
7,AGATAGAT,-0.217 ± 0.015
8,GCAACAGA,-0.044 ± 0.051
9,AACCTCAT,-0.0665 ± 0.025
10,GTATACGA,-0.16 ± 0.064
11,AATGAACA,-0.106 ± 0.0032
12,TTAAACAA,-0.0365 ± 0.021
13,CATCCGGG,-0.171 ± 0.045
14,CAAAAGGC,0.00442 ± 0.079
15,GGCACGCC,0.126 ± 0.028
16,CATTTTCC,-0.0972 ± 0.024
17,CATTGATC,-0.164 ± 0.03
18,ATGTATAC,-0.0917 ± 0.039
19,CGGGCCTA,-0.22 ± 0.029
20,GACGAGCC,-0.0675 ± 0.1
21,GAACTTTA,0.0303 ± 0.057
22,CGGCCACA,0.0565 ± 0.0067
23,ACGACCCA,-0.0037 ± 0.018
24,GCATGCTA,0.107 ± 0.033
25,ACATCTCT,-0.00486 ± 0.058

row,Sequence,PBM E-score of 8-mer
1,CTAGCTTC,-0.093 ± 0.058
2,AACATTTG,0.0235 ± 0.04
3,GGCAAAAA,0.0558 ± 0.047
4,AAAACGCG,0.189 ± 0.037
5,AGTCGTCA,0.223 ± 0.042
6,ACCACCTC,0.341 ± 0.027
7,TGGCCAAA,-0.121 ± 0.043
8,GGAGGGTA,0.0367 ± 0.054
9,CCCTACAA,-0.041 ± 0.031
10,CGCCAGTA,0.123 ± 0.02
11,GATTCGCC,0.000945 ± 0.017
12,CAGTTTCC,-0.0713 ± 0.018
13,GATCGTAC,-0.14552 ± 5.7e-05
14,AAGGTCCG,-0.208 ± 0.068
15,ACCGGAGC,-0.214 ± 0.025
16,CGGCATCC,-0.109 ± 0.04
17,AAGCAGGT,0.1547 ± 0.00098
18,CAACCTCG,0.0578 ± 0.0012
19,CGAATACG,0.0138 ± 0.0012
20,CTGTAAAC,0.0517 ± 0.06
21,TAGAGGGA,-0.0723 ± 0.04
22,CGTATACC,-0.0524 ± 0.038
23,ACGCCACA,0.148 ± 0.057
24,CTTCCCTC,-0.22484 ± 0.00012
25,ACCTCCCT,0.055 ± 0.044

row,Sequence,PBM E-score of 8-mer
1,AGTAAGTC,-0.207 ± 0.033
2,CCAATCTA,-0.137 ± 0.017
3,AATCCCGC,-0.199 ± 0.0081
4,GCCTGACA,0.23 ± 0.03
5,CTATCTAC,-0.0836 ± 0.027
6,TCTGTGCA,-0.13 ± 0.065
7,TACCAACA,0.135 ± 0.0073
8,TGGAGAAA,0.00726 ± 0.093
9,GGTCAACC,-0.126 ± 0.004
10,CCTCAGCC,-0.06 ± 0.04
11,AGCTTTAA,-0.256 ± 0.049
12,GAATCGTA,-0.115 ± 0.011
13,GAGAGCAA,-0.0151 ± 0.0081
14,AGATTACA,-0.1 ± 0.028
15,GCTAAACC,0.109 ± 0.0076
16,ACTAAGAC,0.04 ± 0.012
17,GTTCGCGA,0.338 ± 0.019
18,CTGTCCCA,0.0449 ± 0.02
19,CTCGTCAA,0.141 ± 0.04
20,GAGCCGCC,-0.114 ± 0.044
21,AGTTATAC,-0.0366 ± 0.0057
22,ACCGAGAC,-0.175 ± 0.07
23,GCATGTCA,-0.0206 ± 0.061
24,GCTTCAAC,-0.193 ± 0.061
25,CGTCGAAA,0.0712 ± 0.034

row,Sequence,PBM E-score of 8-mer
1,GGCCGAAC,-0.292 ± 0.0094
2,CCCTCCGG,0.0366 ± 0.049
3,CCAAAGAG,0.0215 ± 0.0046
4,TCGTATAA,-0.192 ± 0.035
5,AAATAACC,0.0174 ± 0.057
6,AATTTTGG,-0.0211 ± 0.053
7,GAGGTGAA,0.294 ± 0.0035
8,CAACCGTG,0.216 ± 0.013
9,CCCACATC,0.142 ± 0.065
10,ACGAGTAC,-0.1 ± 0.054
11,ATACGCCA,0.0158 ± 0.048
12,CACGCCCA,0.239 ± 0.007
13,AAGGAATA,-0.167 ± 0.018
14,CGGCGGGA,0.00891 ± 0.1
15,AGAGGAGG,0.184 ± 0.048
16,CTATCGAG,0.139 ± 0.066
17,CCGTACTC,-0.204 ± 0.04
18,GGTCACCA,-0.127 ± 0.052
19,GCCGCCTA,-0.176 ± 0.021
20,AAGCTAAT,-0.209 ± 0.053
21,CGTGGGGC,-0.0412 ± 0.069
22,AGTTATCG,0.0442 ± 0.042
23,CTGTGTAC,-0.216 ± 0.043
24,ACCAACAT,-0.0497 ± 0.017
25,CCAGCGAA,0.141 ± 0.012

row,Sequence,PBM E-score of 8-mer
1,CAGATCCA,-0.0377 ± 0.038
2,CAGGTGAA,0.1748 ± 0.0016
3,CCAAAACC,0.0649 ± 0.035
4,GTCAACAA,0.293 ± 0.013
5,AGCCAGCC,-0.22 ± 0.12
6,ACTGTCTG,0.0484 ± 0.067
7,AAATAGTA,-0.103 ± 0.029
8,AGTGTGCC,0.125 ± 0.0018
9,CGGGGGTA,-0.311 ± 0.064
10,CCCGAAAA,-0.308 ± 0.032
11,AGGCTAAT,-0.301 ± 0.0091
12,CACGCTTA,0.163 ± 0.0077
13,AATGCTGT,-0.0806 ± 0.046
14,GCCTGCCA,0.177 ± 0.0076
15,CATGTACC,-0.136 ± 0.0026
16,ACTGTAAA,0.0546 ± 0.023
17,AAACCAAA,-0.223 ± 0.015
18,CATAAGAC,-0.1577 ± 0.00067
19,ATGGGTAG,0.0295 ± 0.059
20,TGACCGAA,0.156 ± 0.024
21,ACCCGGAG,0.222 ± 0.074
22,GAGGATTA,-0.00387 ± 0.068
23,GCCGACAC,0.382 ± 0.03
24,GAACTTGC,0.0599 ± 0.089
25,CTTCGATA,-0.00351 ± 0.034

row,Sequence,PBM E-score of 8-mer
1,GGCAGTAA,-0.113 ± 0.0066
2,GCAGCACA,-0.0627 ± 0.01
3,ATCGACTC,-0.162 ± 0.051
4,AGTCATCA,0.0394 ± 0.017
5,AGCCCAAC,-0.194 ± 0.0054
6,CGTCGCAG,-0.0808 ± 0.038
7,ACGTAACC,-0.1962 ± 0.00011
8,GGATGGTA,-0.326 ± 0.036
9,GGACATTA,-0.325 ± 0.06
10,CAATGATG,-0.0571 ± 0.053
11,CCCGGTGA,-0.158 ± 0.089
12,ACTGACCG,-0.137 ± 0.05
13,CATCTTGA,-0.00594 ± 0.0059
14,GGAGATAC,-0.218 ± 0.053
15,CGTGACAA,0.407 ± 0.025
16,CTTCCCGA,-0.104 ± 0.0081
17,ATCTTGAG,-0.101 ± 0.058
18,CAGGGCGA,0.077 ± 0.062
19,GGGACGAA,-0.15 ± 0.018
20,AACGCATT,0.0844 ± 0.015
21,CCCCTCCC,-0.129 ± 0.035
22,AATCAAGA,-0.13 ± 0.1
